Experimental data from article PMC4571948, “Identification of a Novel Sequence Motif Recognized by the Ankyrin Repeat Domain of zDHHC17/13 S-Acyltransferases*” (The Journal of Biological Chemistry, 2015).

Biological target: T1, GST-17NAnk (GST-tagged N-terminal (1–305) zDHHC17) (murine, UniProt Q80TN5 1-305)
T1 construct: zDHHC17, murine cDNA, N-terminal residues 1–305 with the AR domain; also called GST-17Ank; GST-tagged AR-containing cytosolic region of zDHHC17; source: E. coli BL21(DE3)pLysS, purified (glutathione resin)
T1 sequence (looked up): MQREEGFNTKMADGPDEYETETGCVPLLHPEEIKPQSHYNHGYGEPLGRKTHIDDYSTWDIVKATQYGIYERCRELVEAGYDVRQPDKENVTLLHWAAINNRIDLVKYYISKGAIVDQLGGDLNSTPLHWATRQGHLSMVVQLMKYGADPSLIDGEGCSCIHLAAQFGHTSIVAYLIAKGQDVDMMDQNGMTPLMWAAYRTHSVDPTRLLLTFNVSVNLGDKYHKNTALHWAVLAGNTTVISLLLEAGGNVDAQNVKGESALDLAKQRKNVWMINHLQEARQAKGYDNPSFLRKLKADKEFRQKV
Test: pull-down; 20 μg GST-17NAnk (or GST) on 10 μl glutathione-Sepharose, 20 μg His6-CSPα or His6-SNAP25b(93–206) (and competing amounts of the other), overnight at 4 °C, PBS washes, Coomassie staining
Conditions: both partners purified

B1: His6-SNAP25b([…]) (domain or fragment)
chain: not shown
notes: source: E. coli BL21(DE3)pLysS, purified (Ni2+-NTA)
B1: binds.
